Source: PubChem BioAssay AID485364 (National Center for Advancing Translational Sciences (NCATS), 2010)
Several values for one entry are separate records, joined by “and”; a condition that tells them apart may be missing. Equal entries are not always repeated. About 11,000 (3.1%) of roughly 360,000 compounds were called active. This list was built around the results that the source calls inconclusive (neither active nor inactive); the mix of calls is not that of the screen. Calls follow the shape of the dose curve; as a rule, active = well fitted inhibition curve with a large enough effect; inconclusive = small, poorly fitted or top-dose-only effect; inactive = no such curve, though single readings can be large or run the other way. Potencies of inconclusive entries are left out as doubtful fits. More than one record can exist for a structure, and the calls need not agree.

Molecular target: Schistosoma mansoni thioredoxin glutathione reductase (TGR) (UniProt Q962Y6)
Test: qHTS Assay for the Inhibitors of Schistosoma Mansoni Peroxiredoxins; also: nearly all actives have a fitted effect of over 60% in size
Conditions: purified TGR, DTNB reduction, TNB absorbance 405 nm; series mostly up to 114 µM
Method in brief: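 TGR 20 nM + NADPH 100 uM (dispensed conc.), cpd preinc 15 min RT; start with NADPH (500 uM addition) then DTNB (15 mM addition). Kinetic TNB absorbance, 405 nm filter. Four-parameter Hill fit across titration.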
Potency is read from the fitted curve at half-maximal effect; tags tell the direction and shape of the fitted curve.

| Compound | Potency |
| --- | --- |
| CN(C)c1ccc(C=C2C(=O)NC(=S)NC2=O)cc1[N+](=O)[O-] | inconclusive [inhibitor, full curve, poor fit] |
| O=C(Nc1ccc(C(=O)N2CCC(O)(c3ccc(Cl)c(C(F)(F)F)c3)CC2)cc1)c1ccc(Br)o1 | inconclusive [inhibitor, partial curve] |
| O=C1Nc2cc(C(=O)N3CCN(c4ccccc4F)CC3)ccc2NC1CSCc1ccccc1F (centres undefined) | inconclusive [inhibitor, partial curve] |
| CC(C)CC(=O)/C=C/n1c(=S)oc2ccccc21 | active: 6.31 µM |
| NC(=O)C1CCN(c2nc(-c3cc4ccccc4o3)cs2)CC1 | inconclusive [inhibitor, partial curve] |
| CN1C(=O)C(=Cc2ccccc2Oc2ccc(Cl)cc2)C(=O)N(C)C1=O | inconclusive [inhibitor, partial curve] |
| CCOC(=O)C1=C(C)C/C(=N\NC(=O)c2ccccc2O)CC1 | inconclusive [inhibitor, partial curve] |
| CC(C)NC(=O)CN1CCN(C(=O)CCl)CC1 | inconclusive [inhibitor, partial curve] |
| O=C(C1CCN(S(=O)(=O)Cc2ccccc2)CC1)N1CCN(c2cccc(Cl)c2)CC1 | inactive |
| COc1ccc(CCNC(=O)Nc2ccc(F)cc2F)cc1OC | inactive |
| O=C(/C=C/c1ccco1)c1ccc(O)cc1 | active: 3.55 µM |
| O=C(Oc1ccc(-c2cnc3ccccc3n2)cc1)c1ccco1 | inactive |
| CCN1CCN(C(=O)c2cc(COc3c(C)cccc3C)on2)CC1 | inactive |
| COc1ccc(Cl)cc1N1C(=O)[C@@H]2C(c3cccc(OC)c3OC)=NO[C@@H]2C1=O | inconclusive [inhibitor, partial curve] |
| CC(=O)Nc1ccc(C(=O)/C=C/c2ccco2)cc1 | active: 8.91 µM |
| COC(=O)C(C)N(C#N)c1nc(C)cc(C)n1 (centres undefined) | inactive |
| Clc1ccccc1N=C1NN=C(c2cccs2)CS1 | inactive |
| COc1ccc(C(=O)Nc2c(N)nc(SCC(=O)N3CCCCCC3)[nH]c2=O)cc1OC | inconclusive [inhibitor, single point] |
| NC(=O)CNC(=O)[C@@H]1CC2(CC(c3cccc(Br)c3)=NO2)CN1C(=O)c1ccc(Br)cc1 (some centres undefined) | inconclusive [inhibitor, partial curve] |
| O=C(CCC(=O)OCC(F)(F)C(F)F)Nc1ccc(Cl)cc1 | inconclusive [inhibitor, single point] |
| CC(=O)c1c(C)[nH]c(C(=O)CSc2nc3ccc(C)cc3[nH]2)c1C | inactive |
| COc1ccc(CN2C(=O)C(Cc3ccccc3)Nc3ncnc(N4CCN(c5ccccc5)CC4)c32)cc1 (centres undefined) | inconclusive [inhibitor, partial curve] |
| Cn1cnc([N+](=O)[O-])c1Sc1n[nH]c(N)n1 | active: 10 µM |
| CC1CN(CC(=O)N2CCc3[nH]c4ccccc4c3C2)CC(C)O1 (centres undefined) | inconclusive [inhibitor, single point] |
| O=C(NCc1ccco1)C1OCCc2ccccc21 (centres undefined) | active: 22.4 µM |

| Compound | Potency |
| --- | --- |
| CC(=O)c1cc(NC(=O)c2ccc([N+](=O)[O-])cc2)c(=O)oc1C | active: 22.4 µM |
| Cc1cc(=O)n(CCc2ccccc2)c(O)c1C#N | inconclusive [inhibitor, partial curve] |
| CCOc1cc(/C=N/Nc2nc(-c3cccs3)c(NC(C)=O)s2)ccc1O | inconclusive [inhibitor, full curve, poor fit] |
| CCn1c2ccccc2c2cc(NC(=O)CSc3nnnn3-c3ccccc3)ccc21 | inconclusive [inhibitor, full curve, poor fit] |
| CCOC(=O)CCCc1sc(N)nc1-c1[nH]c(=O)[nH]c1C | inconclusive [inhibitor, partial curve] |
| CC(=C/c1ccco1)/C=N/NC(=O)Cc1cccn1C | active: 44.7 µM |
| CCc1ccc(CN2CCC(Oc3ccc(C(=O)NCc4ccccn4)cc3)CC2)o1 | inconclusive [inhibitor, partial curve] |
| Cc1ccc(/C=N/n2cnc3sc4c(c3c2=O)CCCC4)o1 | inconclusive [inhibitor, partial curve] |
| CN(C)c1ccc(C(=O)N2CC(=O)N(CCc3ccccc3)C(=O)C2)cc1 | inconclusive [inhibitor, single point] |
| CN(Cc1ccco1)S(=O)(=O)c1nnc(NC(=O)c2cccc(Cl)c2)s1 | inactive and active: 7.94 µM |
| CCCN(CCC)C(=O)c1cc2c(=O)n3cccc(C)c3nc2n1C | inconclusive [inhibitor, single point] |
| O=C(C1CC1)N1CCc2cc(Br)cc(S(=O)(=O)NCc3ccco3)c21 | inconclusive [inhibitor, partial curve] |
| Cc1ccc(NC(=O)COC(=O)c2ccc([N+](=O)[O-])s2)c(C)c1 | inactive |
| CCN(CC(=O)NCc1ccc(F)cc1)C(=O)/C=C/c1ccco1 | active: 20 µM |
| COc1ccccc1N1C(=O)NC(=O)C2(Cc3cc(C)ccc3N(C)C2)C1=O (centres undefined) | inconclusive [inhibitor, partial curve] |
| O=C(NC1CC1)C1CCN(S(=O)(=O)c2cc([N+](=O)[O-])ccc2Cl)CC1 | inconclusive [inhibitor, partial curve] |
| CN(C)c1nc(/C=C(\C#N)C(N)=O)c(Cl)n1-c1ccc(F)cc1 | inconclusive [inhibitor, partial curve] |
| COc1ccc(NC(=O)/C=C\C(=O)N(c2ccc(C(C)C)cc2)C(C(=O)NCc2ccco2)c2ccc(F)cc2)cc1 (centres undefined) | inactive |
| Cn1cccc1CNCCc1ccccc1 | inactive |
| O=C(NNc1ccc(O)cc1)c1ccc(Br)cc1 | active: 22.4 µM |
| O=C(NCc1ccco1)C1CCN(c2nc3ccccc3n2Cc2ccccc2F)CC1 | active: 44.7 µM |
| Cc1cc(C)c(S(=O)(=O)/N=C2\C=CC(=O)C(Cl)=C2)c(C)c1 | active: 3.98 µM |
| COC(=O)c1cn(NC(=O)Cc2ccc(Cl)cc2)c(=O)c2ccccc12 | inconclusive [inhibitor, single point] |
| COc1cc(OC)c(OC)cc1/C=N/NC(=O)c1cc(-c2cccn2C)n[nH]1 | inconclusive [inhibitor, full curve] |
| CSc1nc(=NC(C)=O)ss1 | inconclusive [inhibitor, full curve, poor fit] |

| Compound | Potency |
| --- | --- |
| COc1ccc(N(C(=O)c2ccncc2)S(=O)(=O)c2cccc([N+](=O)[O-])c2)cc1 | active: 31.6 µM |
| CC(C)(C)OC(=O)N1CCC(c2c(C(=O)N3CCN(C(=O)c4ccco4)CC3)cnn2-c2ccccc2)CC1 | inconclusive [inhibitor, single point] |
| COc1cc(NC(=O)c2ccc(NC(=O)N3CCSc4ncccc43)cc2)cc(OC)c1 | inactive |
| O=C(NCCC1=CCCCC1)C1CCN(C(=O)Nc2ccccc2)CC1 | inactive |
| COc1cc(/C=N/n2cnnc2)ccc1OCc1ccccc1 | inactive |
| CCCc1ccc2oc(C(=O)NCCN3CCCC(O)C3)c(C)c2c1 (centres undefined) | inactive |
| CCOC(=O)C1(c2ccccc2)CCN(CCC(=O)Nc2ccc(F)cc2)CC1 | inactive |
| Cc1ccc(Cl)cc1-n1c(=O)cc(N2CCN(C(=O)c3ccco3)CC2)[nH]c1=O | inconclusive [inhibitor, partial curve] |
| Cc1ccccc1/C=C/C(=O)NCC(=O)N1CCC(N(C)C2CCCCC2C)CC1 (centres undefined) | inconclusive [inhibitor, partial curve] |
| CC1=C(C(=O)Nc2ccccc2)C(c2ccc(C)o2)n2c(s/c(=C\c3ccco3)c2=O)=N1 (centres undefined) | inconclusive [inhibitor, partial curve] |
| COCCC(=O)N1CCC(Oc2ccc(C(=O)NCCn3cccn3)cc2)CC1 | inactive |
| O=c1c2ccccc2nc(SCc2ccc(F)cc2Cl)n1CCCN1CCOCC1 | inactive |
| O=C(NC(=S)Nc1cnc2ccccc2c1)c1ccccc1 | inconclusive [inhibitor, full curve, poor fit] |
| COCCn1c(SCC(=O)c2cc(C)n(C)c2C)nc2ccccc2c1=O | inactive |
| CN(C)S(=O)(=O)c1ccc(C(=O)/C=C/c2cccnc2)cc1 | inconclusive [inhibitor, full curve] |
| O=C(CN1C(=O)CSc2ncccc21)Nc1cccc(Cl)c1 | inactive |
| CC(C)CCN(Cc1ccco1)S(=O)(=O)c1csc(C(N)=O)c1 | inconclusive [inhibitor, partial curve] |
| Oc1c(CN2CCN(c3ccccn3)CC2)cc(Cl)c2cccnc12 | inconclusive [inhibitor, partial curve] |
| CCOC(=O)C1CCN(C(=O)C23CC4CC(CC(C4)C2)C3)CC1 | inconclusive [inhibitor, single point] |
| Cc1csc(NC(=O)CN2C(=O)c3ccccc3S2(=O)=O)n1 | inactive |
| COc1ccc(CN2CCNC(=O)C2CC(=O)NCCSc2nccn2C)cc1OC (centres undefined) | inactive |
| CC(C)[C@H](NC(=O)c1ccccc1Cl)C(=O)NC1CCCCCC1 | inactive |
| COc1cccc(C2=NNC(=NCc3ccccc3)SC2)c1 | inactive |
| CCOC(=O)Cn1nnnc1C(C(C)C)N(Cc1cc2c(C)cc(C)cc2[nH]c1=O)C1CCCC1 (centres undefined) | inconclusive [inhibitor, partial curve] |
